This assay deals with NCI-H322M lung. The experiment in a line: NCI tumour cell line growth inhibition, 48 h.

Each structure is given as a SMILES string. “And” between values parts separate entries of the source, which are not always exact repeats. Equal values may be shown once.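 Exposure lasted 48 hours, with cells grown in 96-well plates and compounds tested at five concentrations. Here, GI50 denotes the concentration required for 50% inhibition of growth. At the TGI there is no net growth.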

Compound `O=C1NC2NC3NC(=O)NC3NC2N1` (stereo unspecified) registered a TGI of more than 100 µM.

As to `O[C@]12C=C(c3nccc4c3[nH]c3ccccc34)[C@@H]3CCN(CCCC/C=C\CC1)C[C@@]31CC3/C=C\CCCCN3[C@H]12` (stereo partly specified), the TGI was determined as 19.2 µM.

Take `COc1ccc2c(c1)OC(N)=C(C#N)C2c1cc(OC)c(OC)c(OC)c1` (stereo unspecified): the GI50 is 0.0533 µM and the TGI was more than 100 µM.

Consider `C[C@@]1([C@H](OC(=O)c2ccccc2)C(N)=O)CO1`, for which the GI50 was 42.7 µM and the TGI came out at 70.7 µM.

`CC(C)=CCCC(C)(OC1OC(CO)C(O)C(O)C1O)C1CCC2(C)C1C(O)CC1C3(C)CCC(O)C(C)(C)C3C(OC3OC(CO)C(O)C(O)C3OC3OC(C)C(O)C(O)C3O)CC12C` (stereo unspecified) (tested in a mixture with another compound) showed a TGI of more than 75 µM.

Compound `O=c1[nH]nc(Cc2ccccc2)n1/N=C/c1cccs1` showed a TGI of more than 100 µM.

`N#CCn1c(=O)c(Oc2ccc(F)cc2F)cc2cnc(NC3CCOCC3)nc21`: the GI50 was more than 25 µM and the TGI is more than 25 µM.

In the case of `C#CC[C@@H]1C(=O)N(Cc2ccc(OC)cc2)[C@@H](C(C)C)C(=O)N1Cc1ccc(OC)cc1`, the TGI was more than 100 µM.

The compound `CC1(C)C2CCC3CC(CCC#N)CCC3C21C#N` (stereo unspecified) came in with a TGI of more than 100 µM.

In turn, `COC(=O)C(CC(C)C)NC(=O)C(NC(=O)c1ccc(-c2ccc(Cl)cc2Cl)o1)C(C)C` (stereo unspecified) returned a TGI of more than 100 µM.

For `CCOC1=C2N=C(C(CC)c3ccccc3F)N=C2C(=O)c2ccccc21` (stereo unspecified), the TGI was more than 100 µM.

With `O=[N+]([O-])c1ccc(C2=Nc3ccccc3S(=O)C(c3ccccc3)C2)cc1` (stereo unspecified), the TGI is more than 100 µM.

As to `O=C1NC(=NCc2ccccc2Cl)S/C1=C\c1ccc2ncccc2c1`, the GI50 was 2.92 µM and the TGI was more than 25 µM.

`Cc1ccc(CNc2ccc(Br)cc2)cc1`: the TGI is more than 100 µM.

In the case of `CCOC(=O)c1c2ccc(/C=C/c3ccccn3)ccc-2c(C(=O)OCC)c1N`, the TGI was 3.79 µM.

In turn, `O=C(CNc1ccccn1)Nn1cnc2ccc(S(=O)(=O)Nc3ccccn3)cc2c1=O` yielded a TGI of more than 100 µM.

`O=c1[nH]/c(=C/c2ccc3c(c2)OCO3)c(=O)[nH]/c1=C/c1ccc2c(c1)OCO2` registered a TGI of more than 10 µM.

Consider `COc1cc2c(c(OC)c1OC)-c1ccc(NN(C(=O)c3ccccc3)C(=O)c3ccccc3)c(=O)cc1[C@@H](NC(C)=O)CC2` (tested in a mixture with another compound), for which the GI50 is 4.09 µM and the TGI came to 51.7 µM.

In turn, `C[C@H]1CC[P+](Cc2ccccc2)(c2ccccc2)C1` (stereo partly specified) registered a TGI of more than 100 µM.

The compound `Nc1nnc2c(-c3ccccc3)[nH]nc2n1` displayed a TGI of more than 100 µM.

Consider `COc1cc(/C=C/C(=O)c2cccc(-n3cc(-c4cc(OC)c(OC)c(OC)c4)[nH]c3=O)c2)cc(OC)c1OC`, for which the GI50 was 3.61 µM and the TGI came out at 16.5 µM.

As to `Nc1nc2c(N)cc(C(F)(F)F)cc2nc1-c1ccccc1`, the TGI was more than 100 µM.

`FC(F)(F)c1ccccc1C1SCC2=Nc3ccccc3CN21` (stereo unspecified) yielded a TGI of 26.5 µM.

`COC(=O)C1CC2C=CC=CC(=O)C2(C)C1` (stereo unspecified) returned a TGI of more than 100 µM.

As for `CCOC(=O)CSc1cc(Cl)c(C)cc1S(=O)(=O)/N=C(/N=C/c1ccc([N+](=O)[O-])s1)NNC`, the GI50 is 26 µM and the TGI was 89.9 µM.

`CS(=O)(=O)N1CC(CCl)c2ccc(NO)cc21` (stereo unspecified): the TGI is more than 76.8 µM.

Take `CC(C)[C@@H]1CC[C@@H](C)C[C@H]1OC(=O)c1c2n(c3ccccc13)C[C@H]1OC(C)(C)O[C@@H]21`: the TGI is more than 100 µM.

Take `CC(C)/C=C1\CCC(CN(C)C)C1=O` (stereo unspecified): the TGI is 31.5 µM.

Turning to `C[N+](C)(CCCCCC[N+](C)(C)CCCN1C(=O)c2cccc3cccc(c23)C1=O)CCCN1C(=O)c2cccc3cccc(c23)C1=O`, the TGI was more than 100 µM.

As to `COc1cc2cc(Oc3ccc(NC(=O)Nc4cc(C(F)(F)F)cc(C(F)(F)F)c4)cc3)c(C)nc2cc1OCCN1CCOCC1`, the GI50 was 1.82 µM and the TGI was 6.87 µM.

On to `COc1cc(-c2cc(/C=C/C(=O)c3ccc(F)c(F)c3)[nH]n2)cc(OC)c1OC`, for which the GI50 was 3.37 µM and the TGI was more than 100 µM.

For the compound `O=C(Nc1ccc(Oc2ccc(F)cc2)cc1)[C@@H]1C[C@@H](Cc2ccc(F)cc2)CN1C(=O)Cn1ccnn1`, the GI50 is 16.8 µM and the TGI is more than 65.7 µM.

Regarding `COC(=O)C(=O)C(C(=O)OC)C(=O)C(=O)Nc1c(C)cccc1C` (stereo unspecified), the TGI is more than 100 µM.

Compound `CC(=O)OCC1OC(n2c(=S)n(-c3ccc([N+](=O)[O-])cc3)c(=O)c3ccccc32)C(OC(C)=O)C(OC(C)=O)C1OC(C)=O` (stereo unspecified) came in with a TGI of more than 100 µM.

For the compound `CCCCC1=CSC(c2ccccc2)=C(c2ccccc2)S1`, the TGI was more than 100 µM.

Take `N#CC(NNC(=O)Cc1ccccc1)c1cccc(O)c1` (stereo unspecified): the TGI was more than 100 µM.

The compound `CC(=O)CCCCn1c(=O)c2c(nc(Br)n2C)n(C)c1=O` returned a TGI of more than 100 µM.

For `COc1nc(N=P(c2ccccc2)(c2ccccc2)c2ccccc2)cc(=O)n1C`, the TGI was more than 100 µM.

As to `O=C1CC2OCC=C3CN4CCC56c7ccccc7N1C5C2C3CC46O` (stereo unspecified), the TGI was more than 100 µM.

`CC(C)c1cccc(C(C)C)c1NC(=O)C(=O)Cc1nc2ccc([N+](=O)[O-])cc2[nH]c1=O` returned a TGI of more than 100 µM.

Take `CC(C)(C)N=CN1C=Cc2nc3ccccc3cc2C1`: the TGI was more than 100 µM.

`Oc1ccc(Br)cc1C=Nc1cccc(C(F)(F)F)c1` returned a TGI of 96.2 µM.

Consider `O=C(CS(=O)(=O)c1nc2ccccc2nc1-c1ccccc1)Nc1ccc(F)cc1`, for which the GI50 is 51 µM and the TGI was more than 100 µM.

For `Nc1ccc2n[se]nc2c1`, the TGI is more than 100 µM.

`CC1(C)CCN2C(=O)C34CCCC3CC21S4` (stereo unspecified) displayed a TGI of more than 100 µM.

Turning to `CCOC(=O)N/N=C(/N)c1cccc(Br)c1`, the TGI was more than 100 µM.

With `Cc1c(C)c2c(c(N)c1C#N)C(=O)N(O)C2=O`, the TGI is more than 100 µM.

`CC(C)(C)c1cc(CCC(=O)Nc2ccc(Cl)cc2)[nH]c(=S)n1` had a TGI of more than 100 µM.

Consider `CC(C)(CN1C(=O)C(Cl)=C(Cl)C1=O)CN1C(=O)C(Cl)=C(Cl)C1=O`, for which the TGI was 57.3 µM.

`O=C/C(=C1/C=Cc2cc([N+](=O)[O-])ccc2S1)c1ccccc1` came in with a TGI of more than 100 µM.

`CCCCCCCC/C=C1\CCC(CN(C)C)C1=O` (stereo unspecified) came in with a TGI of 31.2 µM.

As to `COc1ccc(/C=c2\c(=O)[nH]c3nc4ccccc4c(=O)n23)cc1`, the TGI was more than 100 µM.

In turn, `O=C(Cc1ccccc1)NN1C(=O)C(Cl)C1c1ccccc1Cl` (stereo unspecified) gave a TGI of more than 100 µM.

With `O=C1CN(c2ccccc2)Cc2nc(Cl)ccc2N1`, the TGI is more than 100 µM.

In the case of `O=C1Nc2ccc(Br)cc2C12CC(c1ccccc1)=NN2` (stereo unspecified), the GI50 is 6.97 µM and the TGI is more than 100 µM.

Turning to `O=C1C(Cl)N(c2c(Cl)cccc2Cl)C1c1c[nH]c2ccccc12` (stereo unspecified), the TGI is more than 100 µM.

`O=[N+]([O-])C(=C/c1ccccc1)/C(=C\c1ccccc1)[N+](=O)[O-]` displayed a TGI of 54.1 µM.

For the compound `COc1cc(OC2OC(CO)C(O)C(O)C2O)c2c(O)c3c(=O)cc(C)oc3cc2c1` (stereo unspecified), the TGI was more than 100 µM.

With `COc1cnc2c(c1)C(=O)c1c-2n(CCCNC2=NCCS2)c(=O)c2cc(F)ccc12`, the GI50 was 0.368 µM and the TGI was 19.3 µM.

For `C[C@]12C=CC(=O)C=C1CC[C@@H]1[C@@H]2CC[C@@]2(C)[C@H]1CC[C@]2(O)C(N)=O`, the TGI was more than 100 µM.

Regarding `CC(=O)Nc1ccc(C(=O)CCl)cc1`, the GI50 is 16.9 µM and the TGI was 37.1 µM.

For `COc1ccc(-n2c(CCC(=O)O)nc3c2C(=O)c2ccccc2C3=O)cc1`, the TGI is more than 100 µM.

On to `O=C1Nc2ccc(Cl)cc2/C1=C\c1c(-c2ccc(Cl)cc2)nc2sc(C3CC3)nn12`, for which the GI50 was 4.6 µM and the TGI came to 19.2 µM.

As for `OCC1O[C@H](O[C@@H]2CCCN3CC(O)C(O)[C@@H]23)C(O)C(O)C1O` (stereo partly specified), the TGI is more than 100 µM.

The compound `O=S1(=O)N2CN3CN(C2)CN1C3` came in with a TGI of 363 µM.

As for `CCC(NC(C)c1ccccc1)C(=O)c1ccc(OCc2ccccc2)c(OCc2ccccc2)c1` (stereo unspecified), the TGI is more than 100 µM.

For the compound `COc1cc(CNCCCCCCN2C(=O)c3cccc4cccc(c34)C2=O)ccc1O`, the GI50 is 4.98 µM and the TGI came out at 18.6 µM.

For the compound `CCOC(=O)[C@@H](C)C[C@H](Cc1ccccc1)NC(=O)c1csc([C@@H](C[C@H](C(C)C)N(C)C(=O)[C@@H](NC(=O)[C@H]2CCCCN2C)C(C)(C)CC)OC(C)=O)n1`, the GI50 was less than 0.00167 µM and the TGI was more than 16.7 µM.

Consider `COC1=C(N)C(=O)c2nc(-c3nc(C(=O)O)c(C)c(-c4ccc(OC)c(OC)c4O)c3N)ccc2C1=O`, for which the GI50 was 0.0554 µM and 0.0296 µM and 0.0136 µM.

Consider `CC1(C)CCC(Sc2ccccc2)O1` (stereo unspecified), for which the TGI was more than 100 µM.

Take `CN(C)c1ccc(/C=C\c2ccnc3ccccc23)cc1`: the GI50 is 46.7 µM and the TGI is more than 100 µM.

With `CC1CC2C3CCC4=CC(=O)C=CC4(C)C3(F)C(O)CC2(C)C1(O)C(=O)COP(=O)(O)O` (stereo unspecified), the GI50 is more than 500 µM and the TGI is more than 500 µM.

On to `COc1ccc(N2C(=O)c3c(c4[nH]c5ccccc5c4c4ccc(C(C)(C)C)cc34)C2=O)cc1`, for which the TGI was more than 100 µM.

`CCN(CC)CCCNc1c2c(Cl)cc(Cl)cc2nc2nc(=O)[nH]c(C)c12` came in with a TGI of more than 100 µM.

In turn, `Cc1cc2ncn(-c3nc4ccccc4nc3C(C#N)S(C)(=O)=O)c2cc1C` (stereo unspecified) returned a TGI of more than 100 µM.

For `O=C1N=C2SC=C(NC(=S)Nc3ccccc3)N2NC12c1ccccc1-c1ccccc12`, the TGI is more than 10 µM.

In turn, `O=C1N/C(=N\N=C\c2ccccc2)C(c2ccccc2)O1` (stereo unspecified) came in with a TGI of more than 100 µM.

`COC(=O)c1ccc2c(c1)CC1(C2)Cc2cc3c(cc2C1)CCC3` displayed a TGI of more than 100 µM.

On to `COc1ccccc1NC(=O)C1=C(C)NC(C)=C(C(=O)Nc2ccccc2OC)C1c1ccccc1[N+](=O)[O-]`, for which the TGI is more than 100 µM.

Compound `CC(=O)OI1NC(=O)c2ccccc21` showed a TGI of more than 100 µM.

`c1cc(N[C@@H]2CCNC2)nc(-c2cnc3ccc(-c4cn[nH]c4)cn23)c1`: the GI50 is 4.39 µM and the TGI is 31.1 µM.

As to `c1ccc(-c2oc(-c3ccccc3)c(CN3CCCCC3)c2CN2CCCCC2)cc1`, the GI50 was 3.83 µM and the TGI is 16.7 µM.

In the case of `CC1=CC(=O)CC2(C)CCC(C(C)CC(=O)CC(C)C)CC12OO` (stereo unspecified), the GI50 is > 100 µM and 21.6 µM; the TGI is > 100 µM and 47.2 µM.

In turn, `CC1=NN=C(C)C1N=Nc1ccc2nc(C)[nH]c2c1` registered a TGI of more than 100 µM.

The values are drawn from PubChem BioAssay (NCI).
